Assay results: the supplement of paper PMC3334620
Whole data set: some 33,000 sequences, median “E-score (-0.5 to 0.5)” near -0.011, cut for the highest 2% near 0.28. This is one part of the list.

What follows are sequences tested against T1, Gcr1 (UniProt P07261) (assay: PBM E-score (8-mer binding enrichment) (E-score (-0.5 to 0.5)); higher = stronger / more preferred TF binding; most listed sequences are background and not binding sites). Settings: protein concentration: 100 nM; construct: GST-full length.
T1 sequence: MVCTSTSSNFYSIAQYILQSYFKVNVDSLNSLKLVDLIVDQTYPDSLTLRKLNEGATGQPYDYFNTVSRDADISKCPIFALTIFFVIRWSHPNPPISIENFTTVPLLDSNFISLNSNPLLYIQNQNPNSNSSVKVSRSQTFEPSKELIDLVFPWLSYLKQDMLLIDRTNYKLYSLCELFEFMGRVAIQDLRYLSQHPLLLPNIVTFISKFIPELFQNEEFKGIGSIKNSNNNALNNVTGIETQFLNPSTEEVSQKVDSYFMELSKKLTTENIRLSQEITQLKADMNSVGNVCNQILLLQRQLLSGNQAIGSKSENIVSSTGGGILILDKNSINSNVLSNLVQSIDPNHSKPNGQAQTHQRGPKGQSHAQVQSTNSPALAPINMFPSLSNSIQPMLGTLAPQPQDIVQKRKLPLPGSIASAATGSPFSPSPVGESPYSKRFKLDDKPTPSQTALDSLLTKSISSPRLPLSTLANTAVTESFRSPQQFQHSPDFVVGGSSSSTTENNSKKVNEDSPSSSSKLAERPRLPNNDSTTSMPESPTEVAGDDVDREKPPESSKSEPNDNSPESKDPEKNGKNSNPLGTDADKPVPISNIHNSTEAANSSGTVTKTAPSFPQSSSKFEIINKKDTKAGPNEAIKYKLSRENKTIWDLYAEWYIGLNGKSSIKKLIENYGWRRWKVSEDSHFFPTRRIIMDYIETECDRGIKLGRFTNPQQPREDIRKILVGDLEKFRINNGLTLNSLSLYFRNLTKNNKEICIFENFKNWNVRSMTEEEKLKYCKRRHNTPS
Method in brief: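 GST-tagged yeast TFs (full-length or DNA-binding domain) were made by PURExpress in vitro transcription/translation and applied at about 100-200 nM to universal all-10-mer Agilent arrays. The arrays were made double-stranded by primer extension, on fresh or once-stripped slides. Bound protein was detected with fluorescent anti-GST, and scans were normalised with masliner. Each ungapped eight-base word, pooled with its reverse complement, received an E-score (modified Wilcoxon-Mann-Whitney statistic) from the Universal PBM Analysis Suite.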

Point of comparison: ATCCTGCG, “PBM E-score” value -0.199. Against it:
- TCCTTCCA — higher, -0.116
- CTTTGAGC — higher, -0.149
- AGTCGCCA — higher, 0.045
- CTCTTAAG — higher, -0.0992
- ATCCCCGG — higher, 0.124
- CGAAGACC — higher, 0.0336
- CATCGTCG — higher, -0.0261
- ACTGCACA — lower, -0.211
- ATGCCCAT — higher, -0.0364
- ACGCGGCG — higher, 0.146
- GACGATCC — higher, -0.0984
- ACCTTTCA — higher, -0.117
- AAGTGCCC — higher, -0.0109
- CTATGGGA — higher, 0.0373
- CTAATCTA — higher, -0.019
- CTGCTGAC — higher, 0.0286
- GAACACGC — higher, 0.0995
- ATCATAGC — higher, -0.194
- AGAACAGC — higher, -0.0978
- GAACTACC — higher, -0.0513
- TGACGTCA — higher, -0.0394
- AAACCATG — higher, 0.0732
- GTCCTAGA — higher, -0.0661
- CTCGGAGA — higher, 0.00453
- AAATCGGG — higher, 0.212
- ATATCTAA — higher, -0.054
- TCTTAAGA — higher, 0.09
- GATACAGC — higher, 0.16
- CTGATTGC — higher, 0.0905
- ACGCTCAC — higher, 0.016
- GTCAGATA — higher, -0.0446
- AACGTGTG — lower, -0.222
- ATGCTAAG — higher, 0.0539
- AAGAGCCT — lower, -0.222
- ATATTGTC — higher, -0.112
- CAGACACG — higher, 0.0199
- GCCCAACC — higher, 0.0648
- CTCCAATC — higher, 0.0227
- AGTTGCAA — higher, -0.105
- AAGACTCA — lower, -0.226
- AGTAGCAT — higher, -0.0355
- AAACTTGA — higher, 0.0895
- ACGCACTC — higher, 0.0635
- AAACAGTT — higher, 0.134
- GATTGGCC — higher, -0.151
- GCTACAGC — higher, 0.121
- ACTGCCGA — higher, 0.0702
- CACACAAC — higher, -0.0691
- ATGCTGCA — higher, 0.0246
- ACTTTTCT — higher, -0.0435
- GCCCCCCA — higher, 0.147
- CGAGGTAA — lower, -0.261
- TCCGGCAA — higher, 0.139
- CTTAGGTA — higher, 0.164
- AGAGACCA — higher, -0.11
- AACGACTA — lower, -0.201
- AACCCGCT — higher, 0.0367
- ACTGAATA — higher, -0.0291
- ATAAACAG — higher, 0.102
- CGGTTATC — higher, -0.0703
- GGTAGATA — higher, 0.00026
- AATAATGG — higher, 0.161
- TAACTAGA — higher, 0.136
- CAATCACG — higher, -0.127
- TGTAAGAA — higher, -0.0334
- ACATACGC — higher, 0.0234
- ATGATACA — higher, 0.0457
- AAATACTT — higher, 0.0147
- GGCGTAAC — higher, -0.0809
- AGGTCCGC — higher, -0.177
- CGATCGCA — higher, 0.084
- ATGCAGGG — higher, -0.14
- GGACCTGA — higher, -0.0485
- AAAGCTAA — higher, -0.0138
- CAGTCGGG — higher, 0.0415
- TACGCACA — higher, -0.106
- CCACTCGC — higher, -0.0702
- ACAAATAA — higher, 0.185
- CGCTGGGC — higher, -0.0287
- CGACCGAC — higher, 0.0935
- TGGGCGAA — higher, -0.197
- GAACCGGA — higher, 0.183
- TATTCGGA — higher, 0.174
- GAACGCAC — higher, 0.0588
- ACGTCCTA — higher, 0.0954
- CAAAGACA — higher, -0.0364
- ATCCGTTA — higher, 0.107
- AGTAATCA — higher, 0.00608
- AGGATGCA — higher, 0.274
- TGGCCACA — higher, 0.106
- GTACGCGA — higher, -0.0231
- GCTATCAC — higher, 0.0786
- TCTCAGCA — higher, 0.114
- ATATCCGG — higher, 0.0453
- CCTGGTTA — higher, -0.13
- ACAAATTG — higher, 0.0261
- TCGAGCCA — higher, -0.0202
- ATCCACTC — higher, 0.318
- ACGGCATA — higher, -0.0761
- ACCTTTTG — higher, 0.0582
- CGGAAACG — higher, 0.0903
- AGTGAGGG — higher, -0.141
- CTCCAGTC — higher, 0.0921
- AAGGACTC — higher, -0.161
- AAACGTAG — higher, -0.0677
- ATTAGCGC — higher, 0.0397
- ACCCGCCT — higher, -0.115
- AACAGTTG — higher, -0.118
- AGACCAAA — higher, 0.062
- CTATACTA — higher, -0.0955
- CAAACATA — higher, -0.12
- ACGTGATC — lower, -0.21
- ATGTTCGG — higher, 0.0415
- GCAATTAA — higher, 0.037
- AAGGAGAG — higher, -0.101
- AACTTTTG — higher, 0.151
- GGCTATAC — higher, -0.116
- CTAGCCAG — lower, -0.228
- AAGCACAA — higher, -0.083
- CAGCATTA — higher, -0.0638
- AATCTCGC — higher, -0.0134
- CTACAAAC — higher, 0.0269
- GACCCCCA — higher, 0.0644
- CCTCAACG — higher, -0.0423
- ATCATTCC — higher, -0.046
- CTTCGTAC — lower, -0.253
- ACCTAACT — higher, 0.0384
- GAATCCGA — higher, 0.271
- GATGTGGA — higher, 0.0638
- AGGTGAAC — higher, 0.128
- ATGCTCCC — lower, -0.209
- GTTTTCCA — higher, 0.00515
- TAGAGTCA — higher, -0.0554
- CAAGGAAA — lower, -0.237
- ACTAGCGG — higher, -0.0781
- GGTGAAGA — higher, -0.0218
- ATCGGACG — higher, -0.136
- CAGCCGGG — higher, -0.0668
- GTGACGGA — higher, 0.0712
- TACTTGGA — higher, 0.0108
- ATACAGCA — higher, 0.0215
- CGCTCTAA — higher, 0.0686
- GACGAGAC — higher, -0.187
- AAAAGACT — higher, 0.0153
- AATGTCAT — higher, 0.0736
- GGCCCTGA — lower, -0.203
- TATGTTAA — higher, -0.00661
- CGCGACTA — higher, -0.0437
- ACCGTCAG — higher, -0.18
- CAAACTCA — higher, 0.0523
- CGCCAATC — higher, -0.0138
- TAGGCTGA — higher, -0.131
- AAAAGTTG — higher, 0.179
- TAGGGCCA — higher, -0.177
- CATATATG — higher, -0.0682
- CGCAGGAC — higher, -0.0582
- CGAGGGGC — higher, 0.0171
- ATTAGTTC — higher, 0.051
- ACCTTTCC — higher, -0.0167
- CCCACTCG — higher, -0.0725
- CACCAGGA — higher, 0.162
- CTCAGCAG — higher, 0.107
- CGTTCACA — higher, 0.0492
- CCGAACAA — higher, 0.159
- AAGGTTGA — lower, -0.286
- CGCCCTCC — higher, -0.183
- AGCGGGCC — higher, -0.09
- GCCAGGGC — higher, -0.143
- CTCTGCCC — lower, -0.203
- AAGGACTA — higher, 0.00095
- TACGGTGA — higher, 0.0227
